# The supplement of paper PMC8728848
# The list shows a part of the results.
# B1: TLEC1 (Arabidopsis thaliana), Q9C5Q9 (protein)
# chain: MSGASSVSSICSSNVSLIPTGPQVFINFRGKDLRKGFMSFLKPALKKEKINVFIDEQEERGKYLISLFDTIGESKIALVIFSEGYCESHWCMDELVKIKEYMDQNRLIIIPIFYRLDLDVVKDLTGKFGDNFWDLVDKYQPEPKKLHKWTEALFSVCELFSLILPKHSDISDRDFVKSIVKAVKKVQKNFFQRRNGEIEYQDFSVPACKLTITMHESPNEEAVQVTVLNEFYQMKNQSPVPSYEFKFWVDLTRPKGNVFMIDARDLSIAWSEDSNHWTWLPLPNQNSNESVMEIAFLKSASWLDVAGKFDTRYLTPRTRYEVVFVVKLEYTFEWETLVKLKLDLPNTWEKPQEQSVDMFDYISDQWLDIPVGEFTTSKKNVGEISFAMYEHECQLWKSGLFVKGVTIRPKY
# Legend:
# Assay in all cases: glycan array binding signal (z-score within array); higher = stronger binding
# Conditions in all cases: glycan notation: IUPAC condensed, linker removed
# [1] = molecular target: Neu5Ac(a2-3)GalNAc(b1-4)GlcNAc
# Outline: (§1)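 The Consortium for Functional Glycomics database supplied 3228 glycan arrays, of which those lacking an available protein sequence were dropped. The binding signal, a within-array Z-score, was averaged across arrays of the same protein sequence and across linkers. Negative scores can be read as non-binding.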
# [2] = molecular target: Neu5Ac(a2-3)[GalNAc(b1-4)]Gal(b1-4)Glc
# Outline: as §1
# [3] = molecular target: Neu5Ac(a2-3)[GalNAc(b1-4)]Gal(b1-4)GlcNAc
# Outline: as §1
# [4] = molecular target: Neu5Ac(a2-3)[Neu5Ac(a2-6)]GalNAc
# Outline: as §1
# [5] = molecular target: Neu5Ac(a2-6)Gal(b1-4)GlcNAc
# Outline: as §1
# [6] = molecular target: Neu5Ac(a2-6)Gal(b1-4)GlcNAc(b1-2)Man(a1-3)[Neu5Ac(a2-6)Gal(b1-4)GlcNAc(b1-2)Man(a1-6)]Man(b1-4)GlcNAc(b1-4)GlcNAc
# Outline: as §1
# [7] = molecular target: Neu5Ac(a2-6)Gal(b1-4)GlcNAc(b1-3)Gal(b1-4)GlcNAc
# Outline: as §1
# [8] = molecular target: Neu5Ac(a2-6)Gal(b1-4)GlcNAc(b1-3)Gal(b1-4)[Fuc(a1-3)]GlcNAc(b1-3)Gal(b1-4)[Fuc(a1-3)]GlcNAc
# Outline: as §1
# [9] = molecular target: Neu5Ac(a2-6)Gal(b1-4)GlcNAc6S
# Outline: as §1
# Neu5Ac(a2-6)GalNAc = molecular target: Neu5Ac(a2-6)GalNAc
# Outline: as §1
# [10] = molecular target: Neu5Ac(a2-6)GalNAc(b1-4)GlcNAc
# Outline: as §1
# Neu5Ac(a2-8)Neu5Ac = molecular target: Neu5Ac(a2-8)Neu5Ac
# Outline: as §1
# [11] = molecular target: Neu5Ac(a2-8)Neu5Ac(a2-3)Gal(b1-4)Glc
# Outline: as §1
# [12] = molecular target: Neu5Ac(a2-8)Neu5Ac(a2-3)[GalNAc(b1-4)]Gal(b1-4)Glc
# Outline: as §1
# [13] = molecular target: Neu5Ac(a2-8)Neu5Ac(a2-8)Neu5Ac
# Outline: as §1
# [14] = molecular target: Neu5Ac(a2-8)Neu5Ac(a2-8)Neu5Ac(a2-3)Gal(b1-4)Glc
# Outline: as §1
# [15] = molecular target: Neu5Ac(a2-8)Neu5Ac(a2-8)Neu5Ac(a2-3)[GalNAc(b1-4)]Gal(b1-4)Glc
# Outline: as §1
# [16] = molecular target: Neu5Ac(a2-8)Neu5Ac(a2-8)Neu5Ac(a2-8)Neu5Ac(a2-3)[GalNAc(b1-4)]Gal(b1-4)Glc
# Outline: as §1
# [17] = molecular target: Neu5Ac9Ac(a2-6)Gal(b1-4)GlcNAc
# Outline: as §1
# [18] = molecular target: Neu5Gc(a2-3)Gal(b1-3)GlcNAc
# Outline: as §1
# [19] = molecular target: Neu5Gc(a2-3)Gal(b1-3)[Fuc(a1-4)]GlcNAc
# Outline: as §1
# Neu5Gc(a2-3)Gal(b1-4)Glc = molecular target: Neu5Gc(a2-3)Gal(b1-4)Glc
# Outline: as §1
# [20] = molecular target: Neu5Gc(a2-3)Gal(b1-4)GlcNAc
# Outline: as §1
# [21] = molecular target: Neu5Gc(a2-3)Gal(b1-4)[Fuc(a1-4)]GlcNAc
# Outline: as §1
# [22] = molecular target: Neu5Gc(a2-6)Gal(b1-4)GlcNAc
# Outline: as §1
# Neu5Gc(a2-6)GalNAc = molecular target: Neu5Gc(a2-6)GalNAc
# Outline: as §1
binder,measurement,setting,value
B1,glycan array binding signal (z-score),[1],-0.437
same,glycan array binding signal (z-score),[2],-0.46
same,glycan array binding signal (z-score),[3],-0.487
same,glycan array binding signal (z-score),[4],-0.386
same,glycan array binding signal (z-score),[5],-0.295
same,glycan array binding signal (z-score),[6],-0.455
same,glycan array binding signal (z-score),[7],-0.244
same,glycan array binding signal (z-score),[8],-0.48
same,glycan array binding signal (z-score),[9],-0.322
same,glycan array binding signal (z-score),Neu5Ac(a2-6)GalNAc,-0.442
same,glycan array binding signal (z-score),[10],-0.493
same,glycan array binding signal (z-score),Neu5Ac(a2-8)Neu5Ac,-0.518
same,glycan array binding signal (z-score),[11],-0.438
same,glycan array binding signal (z-score),[12],-0.396
same,glycan array binding signal (z-score),[13],-0.485
same,glycan array binding signal (z-score),[14],-0.511
same,glycan array binding signal (z-score),[15],-0.444
same,glycan array binding signal (z-score),[16],-0.365
same,glycan array binding signal (z-score),[17],-0.272
same,glycan array binding signal (z-score),[18],-0.447
same,glycan array binding signal (z-score),[19],-0.473
same,glycan array binding signal (z-score),Neu5Gc(a2-3)Gal(b1-4)Glc,-0.391
same,glycan array binding signal (z-score),[20],-0.574
same,glycan array binding signal (z-score),[21],-0.219
same,glycan array binding signal (z-score),[22],-0.563
same,glycan array binding signal (z-score),Neu5Gc(a2-6)GalNAc,-0.514
